The whole screen tested about 39,000 compounds, of which about 220 (0.56%) showed activity. The list shows a part of the results.
Tested on: Escherichia coli K-12 BW25113
Experiment: relative growth (OD600 normalised to plate interquartile mean) (fraction); higher = less growth inhibition, active = 0.2 or less
Settings: 50 µM; LB; incubation time: overnight (16-24 h)
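Also: static incubation at 37 °C against the wild-type strain, values averaged over two biological replicates.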

SMILES | relative growth
Cc1ccc(S(=O)(=O)N(c2cccc(-n3cc(CCC(=O)NO)nn3)c2)S(=O)(=O)c2ccc(C)cc2)cc1 | inactive: 0.945
C[C@@H]1CCCCO[C@@H](CN(C)C(=O)Nc2ccc3c(c2)OCO3)[C@H](C)CN([C@@H](C)CO)C(=O)c2cc(NC(=O)c3ccccc3)ccc2O1 | inactive: 1.02
COc1ccc(CN(C)C[C@@H]2OCCCC[C@@H](C)Oc3ccc(NC(=O)Nc4ccc(F)cc4)cc3C(=O)N([C@H](C)CO)C[C@H]2C)cc1 | inactive: 0.988
CC[C@H]1COCCC(=O)N1 | inactive: 0.988
Cc1cc(O)cc(C)c1Cl | inactive: 0.463
C[C@@H]1CN([C@@H](C)CO)C(=O)c2cc(NC(=O)Nc3ccc(F)cc3)ccc2O[C@H]1CN(C)Cc1ccc(C(F)(F)F)cc1 | inactive: 1.06
C[C@H]1CN([C@@H](C)CO)C(=O)Cc2cc(NC(=O)Nc3ccc(C(F)(F)F)cc3)ccc2O[C@H]1CN(C)Cc1ccc(Oc2ccccc2)cc1 | inactive: 1
C[C@@H]1CN([C@@H](C)CO)C(=O)Cc2cc(NC(=O)Nc3ccc(C(F)(F)F)cc3)ccc2O[C@@H]1CN(C)S(=O)(=O)c1ccc(Cl)cc1 | inactive: 1.04
C[C@@H]1CCCCO[C@H](CN(C)C(=O)Cc2ccccc2)[C@H](C)CN([C@@H](C)CO)C(=O)c2cc(NS(=O)(=O)c3cccs3)ccc2O1 | inactive: 1.02
C[C@@H]1CCCCO[C@@H](CN(C)S(=O)(=O)c2ccccc2)[C@@H](C)CN([C@H](C)CO)C(=O)c2cc(NC(=O)C3CCCCC3)ccc2O1 | inactive: 1.01
Oc1cccc(O)c1 | inactive: 1.09
Cc1noc(C)c1S(=O)(=O)Nc1ccc2c(c1)C(=O)N([C@H](C)CO)C[C@H](C)[C@@H](CN(C)S(C)(=O)=O)OCCCC[C@H](C)O2 | inactive: 0.991
CC(C)CC#Cc1cnc2c(c1)C(=O)N([C@H](C)CO)C[C@H](C)[C@H](CN(C)C(=O)CN1CCOCC1)O2 | inactive: 1.01
C[C@H]1CN([C@@H](C)CO)C(=O)c2cccc(NS(=O)(=O)c3cccs3)c2O[C@H]1CN(C)S(=O)(=O)c1cccs1 | inactive: 0.998
Cc1noc(C)c1NC(=O)N(C)C[C@H]1OCCCC[C@@H](C)Oc2ccc(NS(=O)(=O)c3cccs3)cc2C(=O)N([C@@H](C)CO)C[C@@H]1C | inactive: 0.977
Cc1noc(C)c1S(=O)(=O)Nc1ccc2c(c1)CC(=O)N([C@H](C)CO)C[C@H](C)[C@H](CN(C)Cc1ccc(-c3ccccc3)cc1)O2 | inactive: 1.01
C[C@@H]1CN([C@H](C)CO)C(=O)Cc2cc(NC(=O)NC3CCCCC3)ccc2O[C@@H]1CN(C)Cc1ccc(Cl)c(Cl)c1 | inactive: 0.99
Cc1c(Br)c(=O)n(C)c(=O)n1C | inactive: 0.969
CNC(=O)C[C@H]1CC[C@@H]2[C@H](COC[C@@H](O)CN2C(=O)Nc2ccc3c(c2)OCO3)O1 | inactive: 1
C[C@@H]1CN([C@H](C)CO)C(=O)c2cc(NC(=O)Nc3ccccc3)ccc2O[C@H]1CN(C)Cc1ccc(C(F)(F)F)cc1 | inactive: 1.03
C[C@H](CO)N1C[C@H](C)[C@H](CN(C)S(=O)(=O)c2ccccc2)Oc2ccc(NC(=O)Cc3ccccc3)cc2CC1=O | inactive: 0.987

SMILES | relative growth
O=C(CCCCCNC(=O)OCCCCO[C@@H]1C[C@H](c2ccccc2)C=C(C(=O)N2CCOCC2)O1)NO | inactive: 0.998
COc1ccc(NC(=O)Nc2ccc3c(c2)C(=O)N([C@@H](C)CO)C[C@@H](C)[C@H](CN(C)C(=O)Nc2ccc(C(F)(F)F)cc2)OCCCC[C@H](C)O3)cc1 | inactive: 1.04
CO[C@@H]1CN(C)C(=O)c2cc(NS(C)(=O)=O)ccc2OC[C@@H](C)N(C(=O)c2ccc3c(c2)OCO3)C[C@H]1C | inactive: 0.986
C[C@H]1CCCCO[C@H](CN(C)S(=O)(=O)c2ccc(F)cc2)[C@@H](C)CN([C@@H](C)CO)C(=O)c2cc(NC(=O)Nc3ccc4c(c3)OCO4)ccc2O1 | inactive: 1.03
Cc1noc(C)c1NC(=O)N(C)C[C@H]1Oc2cc(C#CCN(C)C)ccc2S(=O)(=O)N([C@H](C)CO)C[C@@H]1C | inactive: 0.976
C[C@@H]1CN([C@@H](C)CO)C(=O)Cc2cc(NC(=O)Nc3cccc4ccccc34)ccc2O[C@@H]1CN(C)S(=O)(=O)c1cccs1 | inactive: 1.05
C[C@H]1CN([C@@H](C)CO)C(=O)c2c(c3ccccc3n2C)-c2ccccc2CO[C@H]1CN(C)C(=O)NC1CCCCC1 | inactive: 1.01
CCCN1C[C@H](C)[C@H](OC)CN(C)C(=O)c2ccc(NS(=O)(=O)c3cn(C)cn3)cc2OC[C@H]1C | inactive: 1.01
C[C@H](CO)N1C[C@H](C)[C@H](CN(C)Cc2ccc(Oc3ccccc3)cc2)Oc2c(NC(=O)c3ccncc3)cccc2C1=O | inactive: 1
C[C@H](CO)N1C[C@H](C)[C@@H](CN(C)Cc2ccc(C(F)(F)F)cc2)Oc2ccc(NC(=O)Cc3cn(C)c4ccccc34)cc2C1=O | inactive: 1.06
COCC#Cc1ccc2c(c1)O[C@H](CN(C)S(=O)(=O)c1cccc(OC)c1)[C@@H](C)CN([C@@H](C)CO)S2(=O)=O | inactive: 1.02
CC(=C(CCOP(=O)(O)O)SC(=O)c1ccccc1)N(C=O)Cc1cnc(C)nc1N | inactive: 1.1
OCc1ccc2c(c1)NCCO2 | inactive: 1.02
C[C@H](CO)N1C[C@H](C)[C@@H](CN(C)C)OCCCC[C@H](C)Oc2ccc(NC(=O)Nc3cccc4ccccc34)cc2C1=O | inactive: 1.02
COc1ccc(C#Cc2ccc3c(c2)O[C@@H](CN(C)S(=O)(=O)c2ccccc2F)[C@@H](C)CN([C@H](C)CO)S3(=O)=O)cc1 | inactive: 0.956
C[C@@H]1CN([C@@H](C)CO)C(=O)Cc2cc(NC(=O)CCC(F)(F)F)ccc2O[C@H]1CN(C)Cc1ccc(-c2ccccc2)cc1 | inactive: 1.03
N#CCC(=O)NN | inactive: 1.08
C[C@@H]1CN([C@H](C)CO)C(=O)c2cc(NC(=O)c3ccncc3)ccc2O[C@@H](C)CCCCO[C@@H]1CN(C)C(=O)Nc1cccc2ccccc12 | inactive: 0.995
Cc1ccc(S(=O)(=O)N(C)C[C@H]2Oc3c(NC(=O)c4ccncc4)cccc3C(=O)N([C@@H](C)CO)C[C@H]2C)cc1 | inactive: 1.01
C[C@@H]1CN([C@H](C)CO)C(=O)c2cccc(NC(=O)Nc3ccc(C(F)(F)F)cc3)c2O[C@H]1CN(C)Cc1ccc(C(=O)Nc2ccccc2N)cc1 | inactive: 0.988
CC[C@H](C(=O)O)N1CCCC1 | inactive: 1.01

SMILES | relative growth
CN(C)CC(=O)N[C@@H]1CC[C@@H](CC(=O)O)O[C@@H]1CO | inactive: 0.983
COc1ccccc1-c1ccc2c(c1)O[C@@H](CN(C)C(=O)c1cccnc1)[C@@H](C)CN([C@@H](C)CO)S2(=O)=O | inactive: 1
C[C@@H]1CCCCO[C@H](CN(C)S(=O)(=O)c2ccc(Cl)cc2)[C@@H](C)CN([C@@H](C)CO)C(=O)c2cc(NS(=O)(=O)c3ccc(F)cc3)ccc2O1 | inactive: 1.02
Cc1ccc(S(=O)(=O)Nc2ccc3c(c2)C(=O)N([C@@H](C)CO)C[C@H](C)[C@@H](CN(C)C(=O)Nc2cccc4ccccc24)OCCCC[C@H](C)O3)cc1 | inactive: 1
O=C(C[C@H]1C=C[C@@H](NS(=O)(=O)c2ccc(F)cc2)[C@H](CO)O1)N1CCC(Cc2ccccc2)CC1 | inactive: 0.927
C[C@@H]1CCCCO[C@@H](CN(C)Cc2ccc(Cl)c(Cl)c2)[C@H](C)CN([C@@H](C)CO)C(=O)c2cc(NC(=O)Nc3ccc(F)cc3)ccc2O1 | inactive: 1.02
C[C@@H]1CN([C@@H](C)CO)C(=O)c2cc(NC(=O)CCN3CCOCC3)ccc2O[C@H]1CN(C)Cc1ccc2c(c1)OCO2 | inactive: 1.01
O=C(C[C@@H]1CC=CCCC(=O)OC[C@H](Cc2c[nH]c3ccccc23)NC1=O)N[C@@H](CO)Cc1ccccc1 | inactive: 0.993
C[C@H]1CN([C@@H](C)CO)C(=O)Cc2cc(NS(=O)(=O)c3ccccc3)ccc2O[C@H]1CN(C)Cc1ccc(C(=O)O)cc1 | inactive: 0.924
Nc1no[n+]([O-])c1-c1ccccc1 | inactive: 0.939
Cc1ccc(S(=O)(=O)N(C)C[C@H]2Oc3c(NC(=O)NC(C)C)cccc3C(=O)N([C@H](C)CO)C[C@@H]2C)cc1 | inactive: 0.992
Cc1noc(C)c1NC(=O)N(C)C[C@H]1Oc2c(NS(C)(=O)=O)cccc2C(=O)N([C@H](C)CO)C[C@H]1C | inactive: 0.99
C[C@H]1CN([C@@H](C)CO)C(=O)c2cccc(NC(=O)Nc3ccc4c(c3)OCO4)c2O[C@H]1CN(C)Cc1ccc(C(F)(F)F)cc1 | inactive: 0.908
COc1ccc(S(=O)(=O)N2C[C@@H](O)COC[C@H]3O[C@H](CC(=O)N[C@@H]4CCN(Cc5ccccc5)C4)CC[C@@H]32)cc1 | inactive: 0.97
CN(C)C(=O)CN1CCn2cc(Cn3cncn3)nc2C1 | inactive: 1
C[C@@H]1CCCCO[C@@H](CN(C)C(=O)C2CCCCC2)[C@@H](C)CN([C@@H](C)CO)C(=O)c2cc(NC(=O)NC3CCCCC3)ccc2O1 | inactive: 0.987
COc1ccc(NC(=O)N(C)C[C@H]2Oc3ccc(NC(=O)Nc4ccc(C(F)(F)F)cc4)cc3CC(=O)N([C@@H](C)CO)C[C@H]2C)cc1 | inactive: 1.04
C[C@@H]1CN([C@@H](C)CO)C(=O)c2c(c3ccccc3n2C)-c2ccccc2CO[C@@H]1CN(C)Cc1cccc(C(=O)O)c1 | inactive: 0.999
C[C@@H]1CN([C@H](C)CO)C(=O)c2cc(NS(C)(=O)=O)ccc2O[C@@H](C)CCCCO[C@H]1CN(C)S(=O)(=O)c1cccs1 | inactive: 0.967

From the supplement of paper PMC9446081
